This is an account of results in ChEMBL document CHEMBL4888484, “Replenishing the malaria drug discovery pipeline: Screening and hit evaluation of the MMV Hit Generation Library 1 (HGL1) against asexual blood stage Plasmodium falciparum ,using a nano luciferase reporter read-out” (2022).

SMILES strings stand for the structures. Hit rate of the full screen: of about 150,000 compounds, about 540 (0.36%) showed an effect of 50% or more. This is one part of the list.

The subject of this assay is Plasmodium falciparum. The experiment in a line: Primary screen in NF54 nanoGlo assay, in single point, at 2uM, 72h; a lower Z score goes with more inhibition. It counts as functional, Erythrocyte. The settings on record: timepoint 72 hour.
As to `COC(=O)c1cccc(-c2nccn2CCc2cccc(F)c2)n1`, the “% Inhibition” value is recorded as -12% and the Z score came to 1.56.

`CC(C)C[C@](C)(NCc1cc(C#N)ccc1F)C(N)=O`: the “% Inhibition” value stood at 11% and the Z score was -1.3.

For the compound `O=C1CN(Cc2nc(-c3ccccc3)nn2C2CCCCC2)CCN1`, the “% Inhibition” value is -7% and the Z score is reported as 1.19.

Turning to `CC(=O)Nc1ccc(C(=O)N[C@H]2CCC[C@H]2F)nc1`, the “% Inhibition” value is on record as -3% and the Z score is on record as 0.31.

`O=S(=O)(Nc1c(Cl)ccc2nsnc12)c1ccc(Cl)s1`: the “% Inhibition” value is reported as 5% and the Z score was -0.54.

In the case of `Cc1nc(NCc2ccc(N3CCNC(=O)C3)cc2)nc(C)c1CC(C)C`, the “% Inhibition” value came to 5% and the Z score is reported as -0.6.

As to `O=C(CN1CCN(c2ccc3c(c2)OCO3)C1=O)Nc1ccc(OC(F)(F)F)cc1`, the “% Inhibition” value was 4% and the Z score is -0.61.

Take `Cn1cc(S(=O)(=O)NCC2(OCCO)CCCC2)cn1`: the “% Inhibition” value is listed as -14% and the Z score stood at 1.55.

With `CC(C)n1cnc2c1c(=O)n(CCc1ccccc1)c(=O)n2-c1ccc(Cl)cc1`, the “% Inhibition” value is listed as -19% and the Z score is listed as 2.43.

For the compound `Fc1ccc2c(c1)CCC2NCc1cnn(C2CC2(F)F)c1` (stereo not drawn), the “% Inhibition” value turned out to be 3% and the Z score is -0.53.

Regarding `O=C(C1C2CCC(C2)N1S(=O)(=O)c1ccccc1)N1CCOCC1` (stereo not drawn), the “% Inhibition” value is -5% and the Z score was 0.75.

Consider `c1cnn(-c2ccc(CN3CCc4cncnc4C3)cc2)c1`, for which the “% Inhibition” value is reported as -5% and the Z score was 0.84.

Regarding `CO[C@H]1COC[C@@H]1NC(=O)C1(N2CCCCC2)CCCCC1`, the “% Inhibition” value is given as -4% and the Z score was determined as 0.8.

For `O=C(NCCOc1ccccc1)c1cnn2c1OCCC2`, the “% Inhibition” value is given as -6% and the Z score was 0.87.

Turning to `CCOC(=O)C1CCC(CNC(=O)NCCn2nnc3cc(C(=O)N(C)C)ccc32)CC1` (stereo not drawn), the “% Inhibition” value was -2% and the Z score was 0.21.

On to `CC[C@H]1C(=O)NCCN1Cc1cnc2c(cnn2C(C)C)c1`, for which the “% Inhibition” value is -7% and the Z score came out at 0.74.

As to `C=CCn1c(=O)c2sc(N(CC)CC)nc2n(CC(=O)Nc2cccc(Cl)c2C)c1=O`, the “% Inhibition” value is -9% and the Z score came to 0.77.

Consider `Cc1cnc(-c2cccc3ccnn23)nc1N(C)C`, for which the “% Inhibition” value is -6% and the Z score was 0.79.

For the compound `Cc1noc([C@@H]2CN(C(=O)CCc3nc4ccccc4[nH]3)C[C@H]2C(N)=O)n1`, the “% Inhibition” value is on record as -7% and the Z score is on record as 1.06.

Regarding `COc1ccc2c(c1)[C@@H](OCCN(C)C)c1cccnc1CC2`, the “% Inhibition” value is reported as -4% and the Z score amounted to 0.76.

In the case of `CC(C)(CC#N)CNC(=O)N1CC(F)C1`, the “% Inhibition” value was -7% and the Z score was 0.91.

Turning to `O=C(NCC1CCN(C(=O)c2cnn[nH]2)CC1)c1ccoc1`, the “% Inhibition” value was -13% and the Z score was found to be 1.29.

Regarding `COCCCNC(=O)CN(C)Cc1c(C)nn(-c2ccccc2)c1Cl`, the “% Inhibition” value worked out at 3% and the Z score is -0.39.

With `CCS(=O)(=O)CCNc1nnc(C2CCC2)o1`, the “% Inhibition” value was -13% and the Z score is reported as 2.46.

`Cc1cccc(O)c1NC(=O)[C@H]1CC1(F)F`: the “% Inhibition” value was determined as 1% and the Z score is listed as -0.11.

For `NC(=O)c1ccccc1OC[C@H]1CC1(Cl)Cl`, the “% Inhibition” value was -13% and the Z score is on record as 1.61.

In the case of `CCn1ncc(S(=O)(=O)N[C@H](c2cnn(C)c2)C2CC(O)C2)c1C` (stereo partly drawn), the “% Inhibition” value turned out to be 3% and the Z score is reported as -0.34.

Take `CN(C)c1cnn(CC(=O)N2CCCC[C@H]2c2cccc(F)c2)c(=O)c1`: the “% Inhibition” value is on record as -15% and the Z score is reported as 1.5.

On to `O=C(c1ccc(F)c(Cl)c1)N1C[C@@H](CO)[C@H](c2ccncc2)C1`, for which the “% Inhibition” value is given as -6% and the Z score turned out to be 1.03.

On to `O=C(Cc1c[nH]c2ccccc12)Nc1ccc(Cl)c2ncccc12`, for which the “% Inhibition” value was 32% and the Z score is given as -0.93.

Regarding `Cc1cc(C)cc(N(CCC#N)C(=O)CN2CCC[C@H]2c2ccc3c(c2)OCCCO3)c1`, the “% Inhibition” value is recorded as -2% and the Z score is 0.18.

Turning to `O=C(c1cc(-c2ccco2)n[nH]1)N1CCC(N2CCC(Oc3ccccc3F)CC2)CC1`, the “% Inhibition” value stood at 59% and the Z score was -4.88.

Turning to `CCc1nsc(N(C[C@H](C)O)C2CC2)n1`, the “% Inhibition” value amounted to 13% and the Z score is given as -1.72.

As to `O=C(CN1CCN(Cc2ccccc2F)CC1)N1CCCc2ccccc21`, the “% Inhibition” value is on record as -13% and the Z score is given as 1.45.

For `CC1CCCC(C)N1S(=O)(=O)c1ccc(NC(=O)CCC(=O)c2ccc3c(c2)OCCO3)cc1` (stereo not drawn), the “% Inhibition” value is -4% and the Z score turned out to be 0.64.

On to `CC(C)[C@@H](N)CN(C)Cc1ccccc1`, for which the “% Inhibition” value is reported as -14% and the Z score came out at 2.

Take `COc1ccccc1[C@H]1CN(Cc2nc(C)n3ccccc23)C[C@@H]1C(=O)O`: the “% Inhibition” value was -2% and the Z score was 0.31.

Take `CC[C@H](C)N(CC(=O)N1CCCN(c2ccc(-c3ccccc3)nn2)CC1)C(=O)c1ccc(Cl)cc1`: the “% Inhibition” value is -28% and the Z score worked out at 2.5.

On to `Cc1cnc(-n2cnnc2)c(-c2ccc(C(=O)N3CC=C[C@@H]3C(C)C)cc2)c1`, for which the “% Inhibition” value is 9% and the Z score is listed as -0.81.

Regarding `Cc1cc(=O)n(Cc2nc(-c3c(F)cccc3F)cs2)cn1`, the “% Inhibition” value is reported as -3% and the Z score is reported as 0.4.

On to `CC(=O)N1CCN(C(=O)c2coc(CN3CCN(c4cccc(C(F)(F)F)c4)CC3)n2)CC1`, for which the “% Inhibition” value is reported as -11% and the Z score turned out to be 1.03.

On to `C=C(C)CC(C)C(=O)N1CCCCC1C(O)CC` (stereo not drawn), for which the “% Inhibition” value is recorded as -17% and the Z score is 1.85.

Turning to `CS(=O)(=O)Nc1nc(Cc2ccccc2)cs1`, the “% Inhibition” value is -9% and the Z score was 1.01.

In the case of `Cc1ccc(-c2nc3cccnc3s2)cc1NC(=O)CCC1CCCCC1`, the “% Inhibition” value is recorded as -18% and the Z score is 3.55.

On to `COc1ccc(-c2ncc(CN3CCC[C@H](C(=O)c4cccc(OC(C)C)c4)C3)cn2)cc1`, for which the “% Inhibition” value is recorded as -1% and the Z score turned out to be 0.1.

For `CCCN(CC(=O)N(Cc1ccccc1)Cc1cccs1)C(=O)CC(C)C`, the “% Inhibition” value was -12% and the Z score was 1.15.

`CCc1cc(C(=O)NC[C@H](C)c2ccc(S(C)(=O)=O)cc2)nn1C`: the “% Inhibition” value is recorded as 4% and the Z score is -0.62.

Consider `O=C1c2c(Br)c(Br)c(Br)c(Br)c2C(=O)N1c1ccc(Cc2ccncc2)cc1`, for which the “% Inhibition” value was determined as 1% and the Z score is recorded as -0.11.

Take `O=C(NCCn1ccnc1)N1CCN(S(=O)(=O)c2ccccc2)CC1`: the “% Inhibition” value was -3% and the Z score came to 0.56.

As to `CC(=O)N1CCCN(C(=O)c2ccc(C)c(F)c2)CCNC(=O)[C@@H]2CCC[C@@H]21`, the “% Inhibition” value was 33% and the Z score is given as -3.69.

For `CC(=O)N1CCC(CN(C)CC(C)c2cccc(Cl)c2)C1` (stereo not drawn), the “% Inhibition” value was -9% and the Z score is 1.25.

With `CN(Cc1noc(C2CCCC2)n1)C[C@H]1CC(c2ccccc2)=NO1`, the “% Inhibition” value is listed as -5% and the Z score was determined as 0.78.

As for `Cc1nc(C(=O)NCC2(O)CCC2)c(Br)s1`, the “% Inhibition” value is recorded as 0% and the Z score is on record as -0.01.

On to `CC(=O)c1ccc(F)c(-c2cccc(C(=O)NC[C@H]3CN(C)CCO3)c2)c1`, for which the “% Inhibition” value was 6% and the Z score is -0.83.

The % Inhibition is the drop in the measured response relative to a control, in per cent.
